# Experimental data from the supplement of paper PMC12217912.
# This is one part of the list. Sequences were assembled here from the parent chain. Values near 0.05 are background.
# B1: TEV protease; numbered along this chain (parent)
# chain: MGESLFKGPRDYNPISSSICHLTNESDGHTTSLYGIGFGPFIITNKHLFRRNNGTLVVQSLHGVFKVKDTTTLQQHLVDGRDMIIIRMPKDFPPFPQKLKFREPQREERICLVTTNFQTKSMSSMVSDTSCTFPSGDGIFWKHWIQTKDGQCGSPLVSTRDGFIVGIHSASNFTNTNNYFTSVPKNFMELLTNQEAQQWVSGWRLNADSVLWGGHKVFMVKPEEPFQPVKEATQL
# Variants of: B1
# Experiment: raw area under fraction-flipped curve 0-4 h after induction (AUC4h, not background-subtracted), DNA-recorder readout of cleavage of the substrate (dimensionless); higher = more cleavage of the substrate by the protease variant
# Details: temperature: 34 °C; time window: 0-4 h after rhamnose induction
# Method: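 In vivo DNA recorder in E. coli TOP10(DE3) ΔrhaA at 34 °C. Each TEVp single-site mutant (parent TEVp 0) is paired with a single-site variant of the 7-mer TEVs (canonical ENLYFQ|S). The substrate sits between flexible linkers in a Bxb1-sfGFP-TEVs-SsrA fusion, so cleavage stabilises Bxb1 and speeds flipping of a recombination array, read by NGS. The value is the raw area under the fraction-flipped curve over 0-4 h after rhamnose induction (AUC4h), with ≥20 reads per time point. It is not background-subtracted; inactive controls average about 0.047.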
# 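Note: Bxb1 expression induced with 0.2% (w/v) L-rhamnose at OD600 near 0.5, cultures sampled hourly, flipped fraction per protease–substrate barcode pair counted by paired-end Illumina sequencing.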
Variant,area with substrate EALYFQS,area with substrate ECLYFQS,area with substrate EDLYFQS,area with substrate EELYFQS,area with substrate EFLYFQS,area with substrate EGLYFQS,area with substrate EHLYFQS,area with substrate EILYFQS,area with substrate EKLYFQS,area with substrate EMLYFQS,area with substrate EQLYFQS,area with substrate ERLYFQS,area with substrate ESLYFQS,area with substrate EWLYFQS,area with substrate EYLYFQS,area with substrate EPLYFQS,area with substrate ETLYFQS,area with substrate EVLYFQS,area with substrate ELLYFQS
MGESLFKGPRDYNPISSSICHLTNESDGHTTSLYGIGFGPFIITNKHLFRRNNGTLVVQSLHGVFKVKDTTTLQQHLVDGRDMIIIRMPKDFPPRPQKLKFREPQREERICLVTTNFQTKSMSSMVSDTSCTFPSGDGIFWKHWIQTKDGQCGSPLVSTRDGFIVGIHSASNFTNTNNYFTSVPKNFMELLTNQEAQQWVSGWRLNADSVLWGGHKVFMVKPEEPFQPVKEATQL [F95R],0.0752,0.0463,0.0937,0.078,0.0668,0.0713,0.078,0.0554,0.0605,0.0727,0.0939,0.0843,0.066,0.0654,,,,,
MGESLFKGPRDYNPISSSICHLTNESDGHTTSLYGIGFGPFIITNKHLFRRNNGTLVVQSLHGVFKVKDTTTLQQHLVDGRDMIIIRMPKDFPPFPQKSKFREPQREERICLVTTNFQTKSMSSMVSDTSCTFPSGDGIFWKHWIQTKDGQCGSPLVSTRDGFIVGIHSASNFTNTNNYFTSVPKNFMELLTNQEAQQWVSGWRLNADSVLWGGHKVFMVKPEEPFQPVKEATQL [L99S],0.122,0.0719,,0.144,,0.0712,,0.0787,,,0.115,0.11,0.0961,,0.0828,,,,
MGESLFKGPRDYNPISSSICHLTNESDGHTTSLYGIGFGPFIITNKHLFRRNNGTLVVQSLHGVFKVKDTTTLQQHLVDGRDMIIIRMPKDFPPFPQKCKFREPQREERICLVTTNFQTKSMSSMVSDTSCTFPSGDGIFWKHWIQTKDGQCGSPLVSTRDGFIVGIHSASNFTNTNNYFTSVPKNFMELLTNQEAQQWVSGWRLNADSVLWGGHKVFMVKPEEPFQPVKEATQL [L99C],0.112,0.0957,0.0703,,0.0965,0.0854,,0.0948,0.0941,0.114,0.109,0.0981,0.0913,,,0.121,,,
MGESLFKGPRDYNPISSSICHLTNESDGHTTSLYGIGFGPFIITNKHLFRRNNGTLVVQSLHGVFKVKDTTTLQQHLVDGRDMIIIRMPKDFPPFPQKLKFREPQIEERICLVTTNFQTKSMSSMVSDTSCTFPSGDGIFWKHWIQTKDGQCGSPLVSTRDGFIVGIHSASNFTNTNNYFTSVPKNFMELLTNQEAQQWVSGWRLNADSVLWGGHKVFMVKPEEPFQPVKEATQL [R106I],0.126,0.119,0.137,0.135,0.099,0.116,,0.0764,0.109,0.102,0.139,0.103,0.109,0.108,,,0.121,0.0683,
MGESLFKGPRDYNPISSSICHLTNESDGHTTSLYGIGFGPFIITNKHLFRRNNGTLVVQSLHGVFKVKDTTTLQQHLVDGRDMIIIRMPKDFPQFPQKLKFREPQREERICLVTTNFQTKSMSSMVSDTSCTFPSGDGIFWKHWIQTKDGQCGSPLVSTRDGFIVGIHSASNFTNTNNYFTSVPKNFMELLTNQEAQQWVSGWRLNADSVLWGGHKVFMVKPEEPFQPVKEATQL [P94Q],0.116,0.103,0.112,,,0.0935,,0.0822,0.107,,0.105,,0.094,,,0.131,0.153,0.104,0.0694
MGESLFKGPRDYNPISSSICHLTNESDGHTTSLYGIGFGPFIITNKHLFRRNNGTLVVQSLHGVFKVKDTTTLQQHLVDGRDMIIIRMPKDFPYFPQKLKFREPQREERICLVTTNFQTKSMSSMVSDTSCTFPSGDGIFWKHWIQTKDGQCGSPLVSTRDGFIVGIHSASNFTNTNNYFTSVPKNFMELLTNQEAQQWVSGWRLNADSVLWGGHKVFMVKPEEPFQPVKEATQL [P94Y],0.139,0.107,0.105,0.101,,,,0.0883,0.107,0.105,,0.0909,0.106,0.0967,,0.135,,,0.0705
MGESLFKGPRDYNPISSSICHLTNESDGHTTSLYGIGFGPFIITNKHLFRRNNGTLVVQSLHGVFKVKDTTTLQQHLVDGRDMIIIRMPKDFPPFPQKLKFREPQRENRICLVTTNFQTKSMSSMVSDTSCTFPSGDGIFWKHWIQTKDGQCGSPLVSTRDGFIVGIHSASNFTNTNNYFTSVPKNFMELLTNQEAQQWVSGWRLNADSVLWGGHKVFMVKPEEPFQPVKEATQL [E108N],0.0888,0.0764,0.0942,0.11,,0.0602,0.0786,0.0678,0.0684,0.0653,0.094,0.0665,0.0736,0.0572,0.0755,0.0915,,0.0724,0.0629
MGESLFKGPRDYNPISSSICHLTNESDGHTTSLYGIGFGPFIITNKHLFRRNNGTLVVQSLHGVFKVKDTTTLQQHLVDGRDMIIIRMPKDFPPFPQKLKFREYQREERICLVTTNFQTKSMSSMVSDTSCTFPSGDGIFWKHWIQTKDGQCGSPLVSTRDGFIVGIHSASNFTNTNNYFTSVPKNFMELLTNQEAQQWVSGWRLNADSVLWGGHKVFMVKPEEPFQPVKEATQL [P104Y],0.0546,0.0557,0.0522,0.055,0.0617,0.0545,0.0451,0.0452,0.0359,0.0704,0.0525,0.0491,0.0507,,0.0545,0.0622,,0.0549,0.0508
MGESLFKGPRDYNPISSSICHLTNESDGHTTSLYGIGFGPFIITNKHLFRRNNGTLVVQSLHGVFKVKDTTTLQQHLVDGRDMIIIRMPKDFPPFPQQLKFREPQREERICLVTTNFQTKSMSSMVSDTSCTFPSGDGIFWKHWIQTKDGQCGSPLVSTRDGFIVGIHSASNFTNTNNYFTSVPKNFMELLTNQEAQQWVSGWRLNADSVLWGGHKVFMVKPEEPFQPVKEATQL [K98Q],0.124,0.112,0.136,,,,0.101,,0.116,0.0929,0.112,0.1,0.108,0.105,,0.105,0.109,0.0801,
